The campaign covered roughly 110,000 compounds. About 230 (0.21%) showed an effect of 50% or more. The list shows a part of the results.
Each compound was assayed against DPAP1 (Plasmodium falciparum, UniProt Q8IIJ9) (assay: primary screen, percent inhibition; read by cleavage of a fluorogenic dipeptide substrate; higher = more effect of the substance).
Design: species or system P. falciparum D10 trophozoite lysates; single well
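Also: 30 min substrate incubation versus DMSO and 10 µM JCP410 controls.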

Chain of DPAP1 (Q8IIJ9 whole entry, looked up): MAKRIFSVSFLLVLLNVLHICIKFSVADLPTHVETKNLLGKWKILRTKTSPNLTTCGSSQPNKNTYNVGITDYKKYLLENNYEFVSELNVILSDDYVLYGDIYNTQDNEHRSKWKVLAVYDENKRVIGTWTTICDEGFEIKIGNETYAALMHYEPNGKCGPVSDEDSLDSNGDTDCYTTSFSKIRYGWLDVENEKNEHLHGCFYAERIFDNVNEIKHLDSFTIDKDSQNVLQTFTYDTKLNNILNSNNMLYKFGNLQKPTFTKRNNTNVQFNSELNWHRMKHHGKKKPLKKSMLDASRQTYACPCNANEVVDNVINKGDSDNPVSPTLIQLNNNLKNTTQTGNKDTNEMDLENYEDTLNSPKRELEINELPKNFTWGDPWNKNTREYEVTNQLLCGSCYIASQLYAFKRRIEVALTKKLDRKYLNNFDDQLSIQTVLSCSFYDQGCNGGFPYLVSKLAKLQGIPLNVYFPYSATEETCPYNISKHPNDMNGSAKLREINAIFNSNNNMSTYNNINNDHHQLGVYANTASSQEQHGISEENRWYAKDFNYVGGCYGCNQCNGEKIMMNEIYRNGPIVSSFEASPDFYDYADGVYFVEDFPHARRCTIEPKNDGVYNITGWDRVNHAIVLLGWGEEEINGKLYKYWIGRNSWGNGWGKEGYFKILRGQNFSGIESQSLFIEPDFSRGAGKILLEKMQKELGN

In order of falling “% Inhibition @ 10 uM” value:
1. COc1cccc(-c2cn3c(n2)sc2cc(C(=O)N4CCN(c5ccccn5)CC4)ccc23)c1  25%
2. CCOC(=O)c1c(N)sc2c1CCc1ccccc1-2  18.3%
3. CC1=C(C(=O)OCCc2ccccc2)C(c2coc3ccccc3c2=O)C2=C(O)CC(C)(C)CC2=N1 (stereo not drawn)  18.2%
4. COc1ccc(CN2CCN(Cc3ccc(Cl)cc3)CC2)c(OC)c1  10.1%
5. Cc1nn(-c2ccccc2)c2c1C(O)CC(C)(C)C2 (stereo not drawn)  8.96%
6. CCOCCCNC(=O)c1ccc(CSc2nc3ccncc3n2Cc2cccc(F)c2)cc1  8.62%
7. CC(C)(C)c1ccc(S(=O)(=O)N2CCC(N3CCCCC3)CC2)cc1  7.17%
8. Cc1ccc(NCN2C(=O)C(=O)c3ccccc32)nc1  6.86%
9. N#CC1=C(N)N(c2ccc(Br)cc2)C2=C(C(=O)CCC2)C1c1ccsc1 (stereo not drawn)  6.84%
10. Cc1sc2c3ccccc3ccc2[n+]1CCC(=O)O  6.51%
11. O=C(NC1CCCCC1C(=O)O)OCC1c2ccccc2-c2ccccc21 (stereo not drawn)  5.77%
12. CCn1c2ccccc2c2cc(CN3CCC(O)CC3)ccc21  4.04%
13. COC(=O)c1ccccc1-c1ccc(/C=C2/C(=N)N3N=C(C(F)(F)F)SC3=NC2=O)o1  4.01%
14. CCOc1ccc(-n2cc(-c3ccccc3)c3c(N4CCCC4)ncnc32)cc1  3.99%
15. N#Cc1cn(Cc2ccccc2)c2ccccc12  3.96%
16. Cc1onc(-c2ccccc2Cl)c1C(=O)Nc1ccccc1C(=O)O  3.93%
17. CCC1CCCCN1CCCNC(=O)C1CC(=O)N(C2CCCC2)C1 (stereo not drawn)  3.79%
18. Cc1ccc(OCCSc2nc3c(N)ncnc3[nH]2)c(C(C)C)c1  3.79%
19. N#C/C(=C\c1ccc(Br)cc1)c1nc(C2CC2)cs1  3.74%
20. O=[N+]([O-])c1ccccc1S(=O)(=O)NCc1ccccc1  3.31%
21. CCN1CC=C2C(C#N)=C(N)C(C#N)(C#N)C(c3ccsc3)C2C1 (stereo not drawn)  3.25%
22. O=C1NC(=O)/C(=C/C(=O)c2ccccc2)N1  3.15%
23. O=C1c2ccc(Oc3cccc([N+](=O)[O-])c3)cc2C(=O)N1c1cnc(O)nc1O  3.06%
24. CCCCOc1ccc(S(=O)(=O)Nc2cccc(-c3cn4ccsc4n3)c2)cc1  3.05%
25. Cc1ccc(Cl)cc1NC(=O)c1cccc2ccccc12  3.03%
26. Cc1cc2ccccc2c(=O)n1CC(=O)NCc1ccco1  2.73%
27. COc1ccc(OC)c(CNCc2cccn2-c2nnc(N3CCC(C)CC3)s2)c1  2.6%
28. COc1ccccc1C(=O)CC1(O)C(=O)Nc2ccc(C)cc21 (stereo not drawn)  2.44%
29. CC(Oc1cccc(Cl)c1)C(=O)Nc1ccc2c(c1)OCCO2 (stereo not drawn)  2.36%
30. COc1ccc2c(CNCCc3ccccc3)c(C(=O)O)n(Cc3ccccc3)c2c1  2.33%
31. CCn1c2ccccc2c2cc(C3C(C#N)=C(N)OC4=C3C(=O)CC(C)(C)C4)ccc21 (stereo not drawn)  1.82%
32. N#Cc1c(C(F)(F)F)cc(-c2cccs2)nc1SCC(=O)NC1CC1  1.76%
33. O=c1oc2ccccc2c2c1ncn2-c1ccccc1  1.71%
34. COc1ccc(CC2NCCc3cc(OC)c(OC)cc32)cc1OC (stereo not drawn)  1.64%
35. O=C(/C=C/c1cccc([N+](=O)[O-])c1)Nc1ccc(Br)cc1  1.35%
36. CC(C)CC(NC1=C(Cl)C(=O)c2ccccc2C1=O)C(=O)O (stereo not drawn)  1.31%
37. Cc1ccc(C)n1-c1cc(C(=O)O)cc(C(=O)O)c1  1.26%
38. CC(C)=CC(=O)CC(C)(O)c1ccccc1 (stereo not drawn)  1.13%
39. Cc1nnc(NC(=O)c2ccc(-c3ccccc3)cc2)s1  1.12%
40. COC(=O)c1sc2nc(-c3ccccc3)nc(NC(=O)Cc3ccccc3)c2c1C  1.03%
41. CCN(CC)CCN1C(=O)C(O)=C(C(=O)c2ccc(F)cc2)C1c1ccc(C)cc1 (stereo not drawn)  1.02%
42. COc1cccc(Nc2nc(-c3ccc(OC)c(F)c3)cs2)c1  0.98%
43. CCc1nc2ccc(C(=O)N3CCN(C)CC3)cc2nc1CC  0.944%
44. C=CCN1C(=S)NC2c3cccc(OCC)c3OC1(C)C2C (stereo not drawn)  0.813%
45. Cc1ccc(NCC(O)COc2ccc(OCC(O)CNc3ccc(C)cc3)cc2)cc1 (stereo not drawn)  0.565%
46. COc1ccc(CN2CCN(Cc3csc4c3CCCC4)CC2)c(OC)c1OC  0.401%
47. COc1cccc(SC[C@H]2CCCC[C@H]2C(=O)NCC#N)c1  0.173%
48. CC1CCN(C(=O)Cn2cccc2C(=O)c2ccccc2)CC1  0.0882%
49. C/C(=C\C(=O)N1CCc2ccccc21)C(=O)O  0.00178%
50. O=P(O)(/C=C/c1ccccc1)/C=C/c1ccccc1  -0.0369%
51. CC(=O)c1cccc(N2C(=O)C3CCC(C)CC3C2=O)c1 (stereo not drawn)  -0.0938%
52. COc1ccc2c(CNCCC3=CCCCC3)c(C(=O)O)n(Cc3ccccc3F)c2c1  -0.232%
53. CN(C)CCN(C(=O)Cc1ccccc1)c1nc2c(F)cc(F)cc2s1  -0.546%
54. CCOc1ccccc1NC(=O)c1ccc2c(c1)C(=O)N(CC1CCCO1)C2=O (stereo not drawn)  -0.553%
55. COc1cccc(C2C3=C(O)CCCC3=NC(C)=C2C(=O)Nc2ccc(Br)cn2)c1OC (stereo not drawn)  -0.661%
56. CCOc1ccccc1NC(=O)C1=C(C)NC(=O)NC1c1ccc(Br)cc1 (stereo not drawn)  -0.865%
57. CCCCc1nnc(NC(=O)c2sc(C)nc2C)s1  -0.946%
58. CCOc1ccc(NC(=O)c2ccccc2OCC)cc1  -1.07%
59. CCN(CC)S(=O)(=O)N1C=Cc2ccccc2C1c1c[nH]c2ccccc12 (stereo not drawn)  -1.15%
60. CCOC(=O)c1cnn(-c2nnnn2-c2ccccc2)c1-c1cc(F)c(F)c(F)c1F  -1.24%
61. COc1ccc(OC)c(-n2c(SCC(=O)NCc3ccco3)nnc2-c2c[nH]c3ccccc23)c1  -1.3%
62. OC1CCCN(Cc2c(F)cccc2Cl)C1 (stereo not drawn)  -1.5%
63. Cc1ccc(S(=O)(=O)N2CCCN(C(=O)C(F)(F)F)C2c2ccccc2)cc1 (stereo not drawn)  -1.52%
64. O=C(Nc1ccccn1)c1noc2c1CSc1ccccc1-2  -1.72%
65. C=CCc1c(C)nc(SC)nc1O  -1.77%
66. CCOC(=O)C1CCCCN1Cc1ccc(O)cc1 (stereo not drawn)  -1.93%
67. O=C1NC(c2ccc(Br)cc2)=N/C1=C/c1ccc(Cl)cc1Cl  -1.98%
68. Cc1ccc(CNC(=O)CSc2nc3c(c(=O)n2Cc2ccccc2)SCC3)cc1  -2.26%
69. Cc1ccc(S(=O)(=O)CCc2nc3ccccc3[nH]2)cc1  -2.39%
70. Cc1ccc(NC(=O)c2ccc(Cl)cc2)cc1O  -2.65%
71. C/C=C/Cn1c(SCc2cccc(C)c2)nc2c1c(=O)[nH]c(=O)n2C  -2.68%
72. CCCC(=O)N1CCN(c2ccc(NC(=O)c3ccc(OC)cc3)cc2Cl)CC1  -2.74%
73. O=C1CSC2(C(=O)Nc3ccccc32)N1c1ccc(F)cc1 (stereo not drawn)  -2.8%
74. O=C(NCCc1c[nH]c2ccccc12)/C(=C\c1ccco1)NC(=O)c1ccco1  -3.06%
75. C=CCn1c2ccccc2c2nnc(SCC(=O)Nc3nncs3)nc21  -3.14%
76. Cc1cccc(CCNC(=O)C(NS(=O)(=O)c2cccc3nsnc23)c2ccccc2)c1 (stereo not drawn)  -3.23%
77. N#CCNC(=O)[C@H](CCC(=O)Nc1ccc(Cl)cc1)NC(=O)c1ccc(Br)cc1  -3.25%
78. COc1cccc(CNC2CN3CCC2CC3)c1OC (stereo not drawn)  -3.33%
79. O=C(O)c1ccc(-c2nnn(Cc3ccc(F)cc3)n2)cc1  -3.53%
80. Cc1ccc(NC2CC(O)C(CO)O2)cc1C (stereo not drawn)  -3.77%
81. COc1ccc(CC2(NC(=O)c3ccc(Cl)cc3)N=C3C=C(C)C=CN3C2=O)cc1 (stereo not drawn)  -3.85%
82. CCOc1cccc2sc(N(CCN(C)C)C(=O)c3nc4ccccc4s3)nc12  -3.88%
83. CC1CC(C)CN(CCCNC(=O)CNC(=O)Cn2ccc3ccccc3c2=O)C1 (stereo not drawn)  -4.06%
84. CCOC(=O)C1=NNCC1C(=O)OCC (stereo not drawn)  -4.06%
85. CC(C)(C)NS(=O)(=O)c1ccc(NC(=O)C2CC2)cc1  -4.14%
86. COc1ccc(-c2nc(Nc3cnc(SC)nc3)sc2C)cc1  -4.19%
87. Cc1cc(C)cc(OCCCCCCc2c(C)n[nH]c2C)c1  -4.3%
88. O=C(NC1CCCCCC1)c1ccc(Cl)c([N+](=O)[O-])c1  -4.3%
89. Clc1cccc(-c2ncnn2-c2ccc(Br)cn2)c1Cl  -4.32%
90. CC(C)COP(=O)(CN1CCOCC1)OCC(C)C  -4.61%
91. NC1=C(c2nc3ccccc3[nH]2)C(=O)CN1C1CCCCC1  -4.82%
92. CCNC(=O)CN(c1cccc(Cl)c1C)S(=O)(=O)c1ccccc1  -5%
93. CCC(Oc1ccccc1)C(=O)O/N=C(\N)c1cccnc1 (stereo not drawn)  -5.11%
94. Cc1cccc(-c2noc(CN(C(=O)/C=C/c3ccccc3)C(C)C)n2)c1  -5.26%
95. NC(=O)C1CCN(C2CCSC2)CC1 (stereo not drawn)  -5.44%
96. CC(=O)N1N=C2/C(=C/c3ccccc3)CCCC2C1c1ccccc1 (stereo not drawn)  -5.5%
97. Cn1cnc2c(=O)oc3ccc(S(=O)(=O)N4CCc5ccccc5C4)cc3c21  -5.73%
98. CCOC(=O)c1ccc(NC(=O)C2CC2(c2ccccc2)c2ccccc2)cc1 (stereo not drawn)  -5.78%
99. Cc1ccc(-n2ncnc2-c2cccs2)cc1Cl  -6.22%
100. COc1ccc(OC)c(NS(=O)(=O)c2ccc(NC(C)=O)cc2)c1  -6.67%
101. CCC(C)C(NCCC(=O)c1ccc(Br)cc1)C(=O)O (stereo not drawn)  -7.23%
102. CCCn1nnnc1NCc1ccc2c(c1)OCO2  -12.7%

Source: publication PMC6919601, “Identification of Plasmodium dipeptidyl aminopeptidase allosteric inhibitors by high throughput screening” (PLoS ONE, 2019)
